# Results taken from PubChem BioAssay AID624173 (National Center for Advancing Translational Sciences (NCATS), 2012).
# Screen size: about 410,000 compounds; about 490 (0.12%) were called active. This list was built around the results that the source calls inconclusive (neither active nor inactive); the mix of calls is not that of the screen. Calls follow the shape of the dose curve; as a rule, active = well fitted inhibition curve with a large enough effect; inconclusive = small, poorly fitted or top-dose-only effect; inactive = flat fitted curve, though single readings scatter. A potency beside an inconclusive call is a rough fit, not a confirmed value.
# Target: pyruvate kinase (Trypanosoma brucei) (UniProt Q57TT1)
# Assay: qHTS of Trypanosoma Brucei Inhibitors; also: nearly all actives have a fitted effect of over 50% in size
# Conditions: TbPYK enzyme, Kinase-Glo Plus ATP luminescence, 45 min; series mostly up to 76.8 µM; activity, negative = inhibition: at the top concentration
# Method in brief: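 Luminescent Kinase-Glo Plus end-point after 45 min room-temperature reaction of T. brucei pyruvate kinase started with 130 uM ADP (final). Buffer TEA 50 mM pH 7.2 with KCl, MgCl2, BSA, Tween-20; titration-based qHTS with fitted concentration-effect curves.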
# % is scaled to controls: 0 for no effect and ±100 for the full control effect; potency is read from the fitted curve at half-maximal effect; tags tell the direction and shape of the fitted curve.
Compound,Potency,"activity, negative = inhibition"
O=C(COC(=O)CCc1nc2ccccc2c(=O)[nH]1)NC(=O)NC1CCCC1,"inconclusive: 3.16 µM [inhibitor, partial curve, poor fit]",
CCOC(=O)NC1(C(F)(F)F)NC(=O)N(Cc2ccco2)C1=O (stereo unspecified),"inconclusive: 25.1 µM [inhibitor, partial curve, poor fit]",
Cc1ccc(-n2c(Cn3nc(C(F)F)cc3C(F)F)n[nH]c2=S)cc1,"inconclusive: 7.94 µM [inhibitor, partial curve]",
Cc1ccc2sc(NNC(=O)C3COc4ccccc4O3)nc2c1C (stereo unspecified),"inconclusive: 31.6 µM [inhibitor, partial curve]",
COc1ccc([N+](=O)[O-])cc1NC(=O)CSc1nc(C)cc(C)n1,"inconclusive: 15.8 µM [inhibitor, partial curve, poor fit]",
CN1C(=O)C(=Cc2ccccc2OS(=O)(=O)c2ccccc2)C(=O)N(C)C1=O,"inconclusive: 35.5 µM [inhibitor, partial curve]",
Cc1ccccc1Nc1nc(-c2sc(NC(=O)c3ccco3)nc2C)cs1,,inactive: -3.3%
Cc1cc(Cl)ccc1-n1c(-c2cccnc2)n[nH]c1=S,active: 14.1 µM,
C[C@@H]1CCCCO[C@H](CN(C)Cc2ccc(Cl)c(Cl)c2)[C@@H](C)CN([C@H](C)CO)C(=O)c2cc(N(C)C)ccc2O1,"inconclusive: 14.1 µM [inhibitor, partial curve]",
COc1ccc(C(CC(=O)O)NC(=O)COc2ccccc2)cc1 (stereo unspecified),"inconclusive: 50.1 µM [inhibitor, single point]",
CC(C)c1ccc(NC(=S)NN2CCOCC2)cc1,,inactive: 7.35%
Cc1ccc(C(=O)Nc2nc(=O)n(C(=O)C3CC3)s2)cc1,"inconclusive: 50.1 µM [inhibitor, single point]",
Cc1ccc(/C=C2\C(=O)NC(=S)N(c3ccc(F)cc3)C2=O)o1,"inconclusive: 11.2 µM [inhibitor, partial curve]",
COc1ccc(C(=O)Nc2ccc(N3CCN(C)CC3)cc2)cc1OC,,inactive: 4.43%
COc1ccc(-c2nc(CN3CCN(C(=O)c4ccco4)CC3)c(C)o2)c(F)c1,,inactive: 2.81%
CCOC(=O)C(C#N)c1ccccn1 (stereo unspecified),"inconclusive: 50.1 µM [inhibitor, single point]",
CCOC(=O)/C(C)=C1\NC(C)(C)Cc2ccccc21,"inconclusive: 50.1 µM [inhibitor, single point]",
COc1ccc(CCNC(=O)CCS(=O)(=O)c2ccc3c(c2)oc(=O)n3C)cc1OC,inactive,
C/C(CC(=O)N1CCN(C=O)CC1)=N\NC(=O)c1cccc([N+](=O)[O-])c1,,inactive: 0.915%
O=C(COc1cccc(C(F)(F)F)c1)N1CCN(c2ccc(O)cc2)CC1,"inconclusive: 15.8 µM [inhibitor, partial curve, poor fit]",
CN1C(=O)NC(=O)/C(=C\C=C\c2ccccc2[N+](=O)[O-])C1=O,"inconclusive: 28.2 µM [inhibitor, partial curve, poor fit]",
Cc1cccc(-n2c(CNC(=O)c3cccc([N+](=O)[O-])c3C)n[nH]c2=S)c1,active: 8.91 µM,

Compound,Potency,"activity, negative = inhibition"
COC(=O)C1=C(C(=O)OC)C(C(=O)OC)C(C(=O)OC)C(C(=O)OC)(C(=O)OC)C(C(=O)OC)=C1C(=O)OC (stereo unspecified),"inconclusive: 39.8 µM [inhibitor, partial curve, poor fit]",
CN1CCC(N2CC3CC(C2)c2cccc(=O)n2C3)CC1 (stereo unspecified),"inconclusive: 31.6 µM [inhibitor, single point]",
CSc1ccccc1NC(=O)c1cc(C2CC2)on1,"inconclusive: 22.4 µM [inhibitor, partial curve, poor fit]",
Cc1ccc(-n2c(-c3nn(C)cc3Cl)n[nH]c2=S)cc1,"inconclusive: 7.94 µM [inhibitor, partial curve, poor fit]",
COc1cc(/C=C2\C(=O)NC(=O)N(c3ccccc3)C2=O)cc(OC)c1OC,"inconclusive: 14.1 µM [inhibitor, partial curve]",
Brc1ccc2nc(-c3ccco3)c(Cc3ccsc3)n2c1,"inconclusive: 28.2 µM [inhibitor, partial curve, poor fit]",
COc1cccc(C(c2sc3nc(C)nn3c2O)N2CCc3ccccc3C2)c1 (stereo unspecified),"inconclusive: 25.1 µM [inhibitor, partial curve]",
Cc1ccc(CNS(=O)(=O)c2ccc3c(c2)NC(=O)CO3)cc1,"inconclusive: 35.5 µM [inhibitor, partial curve, poor fit]",
N#Cc1ccccc1OCC(=O)Nc1ccc2c(c1)OCCO2,,inactive: -4.32%
O=C1C(C2=C(O)c3ccccc3C2=O)=Nc2ccccc21,"inconclusive: 25.1 µM [inhibitor, single point]",
Cc1c(N2C(=O)/C(=C\c3ccccc3O)SC2=S)c(=O)n(-c2ccccc2)n1C,"inconclusive: 8.91 µM [inhibitor, partial curve, poor fit]",
COc1cccc(C(O)c2nc(-c3ccc(F)c(Cl)c3)cs2)c1 (stereo unspecified),,inactive: 3.99%
CCN(C(=O)COC(=O)/C=C/c1ccc(C)o1)c1c(N)n(Cc2ccccc2)c(=O)[nH]c1=O,"inconclusive: 50.1 µM [inhibitor, single point]",
O=C(COC(=O)/C=C/c1ccc(F)cc1)NC1CCCCCC1,,inactive: 5.76%
O=C(CN(Cc1ccco1)C(=O)CNS(=O)(=O)c1ccc(Cl)cc1)NCc1ccc(F)cc1,"inconclusive: 44.7 µM [inhibitor, single point]",
COc1cc(-c2n[nH]c(=S)n2Cc2ccccc2)cc(OC)c1OC,"inconclusive: 15.8 µM [inhibitor, partial curve, poor fit]",
CCN(CC)S(=O)(=O)c1ccc(C(=O)NCc2n[nH]c(=S)n2-c2ccc(Cl)c(Cl)c2)cc1,"inconclusive: 14.1 µM [inhibitor, partial curve]",
Cc1occc1C(=O)NNC(=S)Nc1cccc([N+](=O)[O-])c1,"inconclusive: 8.91 µM [inhibitor, partial curve]",
Cc1ccccc1-c1n[nH]c(=S)n1C,"inconclusive: 22.4 µM [inhibitor, partial curve, poor fit]",
N/C(=N\OC(=O)c1ccc(F)cc1)c1ccccc1,"inconclusive: 20 µM [inhibitor, partial curve, poor fit]",
CCC(=O)N1c2ccc(S(=O)(=O)CCC(=O)Nc3ccc(Br)c(C)c3)cc2CC1C (stereo unspecified),"inconclusive: 50.1 µM [inhibitor, single point]",
C=CCn1c(C(C)NC(=O)c2ccccc2)n[nH]c1=S (stereo unspecified),"inconclusive: 15.8 µM [inhibitor, partial curve]",

Compound,Potency,"activity, negative = inhibition"
CCCCc1c(C)nc2ccc(OC)cc2c1SCCC(=O)O,"inconclusive: 28.2 µM [inhibitor, partial curve]",
Cc1ccc(S(=O)(=O)Nc2ccc(Cl)cc2)cc1NC(=O)Cn1cnc2c1c(=O)n(C)c(=O)n2C,,inactive: 0.273%
COc1ccc(N2C(=O)CC(Sc3ncn[nH]3)C2=O)c(OC)c1 (stereo unspecified),"inconclusive: 25.1 µM [inhibitor, partial curve, poor fit]",
CC(=O)c1cccc(NC(=O)CCC2CCCC2)c1,,inactive: 2.39%
CN(C)c1ccc(Cc2cc3c(O)ccc(O)c3cc(Cc3ccc(N(C)C)cc3)c2=O)cc1,"inconclusive: 5.62 µM [inhibitor, partial curve, poor fit]",
Oc1ccc(C2C[C@H]3CC[C@@H]2C3)cc1O (stereo partly specified),"inconclusive: 31.6 µM [inhibitor, partial curve]",
Cc1ccc(Oc2ccc(NS(=O)(=O)c3cccc(C(=O)O)c3)cc2)cc1,,inactive: 2.01%
COc1ccc(Cn2nnc3c(=O)[nH]c(C4CCN(C(=O)c5ccc(C)cc5)CC4)nc32)cc1OC,,inactive: -2.27%
C=C(CN(C)C)C(=O)c1ccc(C)cc1C,"inconclusive: 39.8 µM [inhibitor, single point]",
CCOC(=O)C1Nc2ccc(C(F)(F)F)cc2C2C=CCC12 (stereo unspecified),"inconclusive: 15.8 µM [inhibitor, partial curve]",
CCOc1cc(CNn2cn[nH]c2=S)cc(Cl)c1OCc1ccccc1F,"inconclusive: 31.6 µM [inhibitor, partial curve, poor fit]",
Cc1ccc2c(c1)C1CN(C)CCC1N2C(=O)c1ccco1 (stereo unspecified),"inconclusive: 50.1 µM [inhibitor, single point]",
CC(=O)Nc1sc2c(c1CN1CCN(c3ccccn3)CC1)CCCC2,"inconclusive: 1 µM [inhibitor, full curve, poor fit]",
CCCCn1c(-c2ccoc2C)n[nH]c1=S,"inconclusive: 25.1 µM [inhibitor, partial curve]",
Cc1ccc(CNC(=O)Nc2ccc(F)cc2)n1C,,inactive: -1.47%
Cc1ccccc1C(=O)Nc1ccc(N2CCCC2)cc1,"inconclusive: 8.91 µM [inhibitor, partial curve, poor fit]",
Cc1ccc(/C=C2/NC(=O)N(c3ccccc3)C2=O)o1,"inconclusive: 50.1 µM [inhibitor, single point]",
O=[N+]([O-])c1ccc(Nc2ccccc2)cc1,,inactive: -0.669%
O=C1NC(=O)N(Cc2ccco2)C(=O)/C1=C/c1ccc(-c2cccc([N+](=O)[O-])c2)o1,"inconclusive: 35.5 µM [inhibitor, partial curve, poor fit]",
Cc1ccc(C(=O)CC(=O)c2cccc(F)c2)c(O)c1,,inactive: 3.33%
COc1ccc(N2C3=C(CC4=C2CCCC4=O)C(=O)CCC3)cc1,"inconclusive: 31.6 µM [inhibitor, partial curve]",
O=C1C2C3CC(C(Br)C3Br)C2C(=O)N1c1ccccn1 (stereo unspecified),"inconclusive: 50.1 µM [inhibitor, single point]",
